Article PMC9911399, “Two distinct binding modes provide the RNA-binding protein RbFox with extraordinary sequence specificity”
Changes are numbered by the printed parent chain; changes in the protein carry UniProt numbers. The list shows a part of the results.

T1: RBFOX1 RRM RbFoxmut (Fox-RRM*) (Homo sapiens, UniProt Q9NWB1 109-208, R118D;E147R;N151S;E152T)
T1 sequence: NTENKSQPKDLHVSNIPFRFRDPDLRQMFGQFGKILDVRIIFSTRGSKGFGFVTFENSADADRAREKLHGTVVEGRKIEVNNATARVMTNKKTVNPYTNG

B1: AGCAUGC (DNA:RNA)
RNA: GGGAGACCGGAAUUCAGAUUGUCCAGCAUGCUUAAAUCCCGUCGUAGCCACCA
DNA 1: CAATCTGAATTCCGGTCTCCC
DNA 2: TGGTGGCTACGACGGGATT
B2: CAACUUG (DNA:RNA)
RNA: B1 RNA with A25C, G26A, C27A, A28C, G30U, C31G
DNA 1: CAATCTGAATTCCGGTCTCCC
DNA 2: TGGTGGCTACGACGGGATT
B3: GGUCAAG (DNA:RNA)
RNA: B1 RNA with A25G, C27U, A28C, U29A, G30A, C31G
DNA 1: CAATCTGAATTCCGGTCTCCC
DNA 2: TGGTGGCTACGACGGGATT
B4: AAGCCGA (DNA:RNA)
RNA: B1 RNA with G26A, C27G, A28C, U29C, C31A
DNA 1: CAATCTGAATTCCGGTCTCCC
DNA 2: TGGTGGCTACGACGGGATT
B5: CUUUGUA (DNA:RNA)
RNA: GGGAGACCGGAAUUCAGAUUGUCCCUUUGUAUUAAAUCCCGUCGUAGCCACCA
DNA 1: CAATCTGAATTCCGGTCTCCC
DNA 2: TGGTGGCTACGACGGGATT
B6: AUGUGUU (DNA:RNA)
RNA: B5 RNA with C25A, U27G, A31U
DNA 1: CAATCTGAATTCCGGTCTCCC
DNA 2: TGGTGGCTACGACGGGATT
B7: GACGCUA (DNA:RNA)
RNA: B5 RNA with C25G, U26A, U27C, U28G, G29C
DNA 1: CAATCTGAATTCCGGTCTCCC
DNA 2: TGGTGGCTACGACGGGATT
B8: AGUUAUG (DNA:RNA)
RNA: B5 RNA with C25A, U26G, G29A, A31G
DNA 1: CAATCTGAATTCCGGTCTCCC
DNA 2: TGGTGGCTACGACGGGATT
B9: GUAGAUC (DNA:RNA)
RNA: B5 RNA with C25G, U27A, U28G, G29A, A31C
DNA 1: CAATCTGAATTCCGGTCTCCC
DNA 2: TGGTGGCTACGACGGGATT
B10: CGGUGCA (DNA:RNA)
RNA: B5 RNA with U26G, U27G, U30C
DNA 1: CAATCTGAATTCCGGTCTCCC
DNA 2: TGGTGGCTACGACGGGATT
B11: UCCCAGC (DNA:RNA)
RNA: B1 RNA with A25U, G26C, A28C, U29A
DNA 1: CAATCTGAATTCCGGTCTCCC
DNA 2: TGGTGGCTACGACGGGATT
B12: AGCCCCC (DNA:RNA)
RNA: B1 RNA with A28C, U29C, G30C
DNA 1: CAATCTGAATTCCGGTCTCCC
DNA 2: TGGTGGCTACGACGGGATT
B13: CUGAUAG (DNA:RNA)
RNA: B1 RNA with A25C, G26U, C27G, G30A, C31G
DNA 1: CAATCTGAATTCCGGTCTCCC
DNA 2: TGGTGGCTACGACGGGATT
B14: GCCCCAC (DNA:RNA)
RNA: B1 RNA with A25G, G26C, A28C, U29C, G30A
DNA 1: CAATCTGAATTCCGGTCTCCC
DNA 2: TGGTGGCTACGACGGGATT
B15: AAACUGC (DNA:RNA)
RNA: B1 RNA with G26A, C27A, A28C
DNA 1: CAATCTGAATTCCGGTCTCCC
DNA 2: TGGTGGCTACGACGGGATT
B16: AUUACUA (DNA:RNA)
RNA: B5 RNA with C25A, U28A, G29C
DNA 1: CAATCTGAATTCCGGTCTCCC
DNA 2: TGGTGGCTACGACGGGATT
B17: CAUUUAU (DNA:RNA)
RNA: B5 RNA with U26A, G29U, U30A, A31U
DNA 1: CAATCTGAATTCCGGTCTCCC
DNA 2: TGGTGGCTACGACGGGATT
B18: ACAGCGU (DNA:RNA)
RNA: B1 RNA with G26C, C27A, A28G, U29C, C31U
DNA 1: CAATCTGAATTCCGGTCTCCC
DNA 2: TGGTGGCTACGACGGGATT
B19: UCACGUA (DNA:RNA)
RNA: B5 RNA with C25U, U26C, U27A, U28C
DNA 1: CAATCTGAATTCCGGTCTCCC
DNA 2: TGGTGGCTACGACGGGATT
B20: CACUGUU (DNA:RNA)
RNA: B5 RNA with U26A, U27C, A31U
DNA 1: CAATCTGAATTCCGGTCTCCC
DNA 2: TGGTGGCTACGACGGGATT
B21: UCAGUCG (DNA:RNA)
RNA: B1 RNA with A25U, G26C, C27A, A28G, G30C, C31G
DNA 1: CAATCTGAATTCCGGTCTCCC
DNA 2: TGGTGGCTACGACGGGATT
B22: UAGAGCU (DNA:RNA)
RNA: B1 RNA with A25U, G26A, C27G, U29G, G30C, C31U
DNA 1: CAATCTGAATTCCGGTCTCCC
DNA 2: TGGTGGCTACGACGGGATT
B23: CUGGGGU (DNA:RNA)
RNA: B5 RNA with U27G, U28G, U30G, A31U
DNA 1: CAATCTGAATTCCGGTCTCCC
DNA 2: TGGTGGCTACGACGGGATT
B24: AAAUGCG (DNA:RNA)
RNA: B5 RNA with C25A, U26A, U27A, U30C, A31G
DNA 1: CAATCTGAATTCCGGTCTCCC
DNA 2: TGGTGGCTACGACGGGATT
B25: UCAAAGC (DNA:RNA)
RNA: B1 RNA with A25U, G26C, C27A, U29A
DNA 1: CAATCTGAATTCCGGTCTCCC
DNA 2: TGGTGGCTACGACGGGATT
B26: CCCCGCC (DNA:RNA)
RNA: B1 RNA with A25C, G26C, A28C, U29G, G30C
DNA 1: CAATCTGAATTCCGGTCTCCC
DNA 2: TGGTGGCTACGACGGGATT
B27: CUAACGU (DNA:RNA)
RNA: B1 RNA with A25C, G26U, C27A, U29C, C31U
DNA 1: CAATCTGAATTCCGGTCTCCC
DNA 2: TGGTGGCTACGACGGGATT
B28: UAAACCA (DNA:RNA)
RNA: B1 RNA with A25U, G26A, C27A, U29C, G30C, C31A
DNA 1: CAATCTGAATTCCGGTCTCCC
DNA 2: TGGTGGCTACGACGGGATT
B29: AAACGAU (DNA:RNA)
RNA: B1 RNA with G26A, C27A, A28C, U29G, G30A, C31U
DNA 1: CAATCTGAATTCCGGTCTCCC
DNA 2: TGGTGGCTACGACGGGATT
B30: AUCUAUG (DNA:RNA)
RNA: B5 RNA with C25A, U27C, G29A, A31G
DNA 1: CAATCTGAATTCCGGTCTCCC
DNA 2: TGGTGGCTACGACGGGATT
B31: CAACUGU (DNA:RNA)
RNA: B1 RNA with A25C, G26A, C27A, A28C, C31U
DNA 1: CAATCTGAATTCCGGTCTCCC
DNA 2: TGGTGGCTACGACGGGATT

Target: T1, RBFOX1 RRM RbFoxmut (Fox-RRM*)
Experiment: EMSA; HiTS-Eq, 1 nM pool, 10 min; buffer printed only for the single-RNA assays: 10 mM Tris pH 7.5, 150 mM NaCl, 3.4 mM EDTA, 0.001% NP-40, 30 C
Details: tags: His6 N-terminal (pET28a); label: 5' 32P
Method in brief: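 These values rest on relative association constants, computed from read-count changes of each RNA species versus the control reaction and normalised to the cognate motif. Reads came from free RNA recovered by 8% native PAGE after purified RbFox RRM (wild type or mutant) at increasing concentrations was equilibrated for 10 min in 50 µL with 1 nM of a 5′-radiolabelled pool with 7 randomized nucleotides and DNA-annealed flanks.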

Binder | binding signal
B1 | 0.495 KA relative to UGCAUGU
B2 | 0.11 KA relative to UGCAUGU
B3 | 0.0789 KA relative to UGCAUGU
B4 | 0.107 KA relative to UGCAUGU
B5 | 0.203 KA relative to UGCAUGU
B6 | 0.174 KA relative to UGCAUGU
B7 | 0.104 KA relative to UGCAUGU
B8 | 0.28 KA relative to UGCAUGU
B9 | 0.102 KA relative to UGCAUGU
B10 | 0.191 KA relative to UGCAUGU
B11 | 0.1 KA relative to UGCAUGU
B12 | 0.0366 KA relative to UGCAUGU
B13 | 0.0824 KA relative to UGCAUGU
B14 | 0.094 KA relative to UGCAUGU
B15 | 0.0585 KA relative to UGCAUGU
B16 | 0.129 KA relative to UGCAUGU

Binder | binding signal
B17 | 0.133 KA relative to UGCAUGU
B18 | 0.138 KA relative to UGCAUGU
B19 | 0.165 KA relative to UGCAUGU
B20 | 0.106 KA relative to UGCAUGU
B21 | 0.09 KA relative to UGCAUGU
B22 | 0.0836 KA relative to UGCAUGU
B23 | 0.12 KA relative to UGCAUGU
B24 | 0.104 KA relative to UGCAUGU
B25 | 0.0697 KA relative to UGCAUGU
B26 | 0.076 KA relative to UGCAUGU
B27 | 0.0712 KA relative to UGCAUGU
B28 | 0.091 KA relative to UGCAUGU
B29 | 0.0548 KA relative to UGCAUGU
B30 | 0.153 KA relative to UGCAUGU
B31 | 0.0791 KA relative to UGCAUGU
